Whole data set: some 33,000 sequences, median “E-score (-0.5 to 0.5)” near -0.021, cut for the highest 2% near 0.32. The list shows a part of the results.
molecular target: T1, Zap1 (UniProt P47043); assay: PBM E-score (8-mer binding enrichment) (E-score (-0.5 to 0.5)); higher = stronger / more preferred TF binding; most listed sequences are background and not binding sites; conditions: protein concentration: 200 nM; construct: GST-full length
T1 sequence: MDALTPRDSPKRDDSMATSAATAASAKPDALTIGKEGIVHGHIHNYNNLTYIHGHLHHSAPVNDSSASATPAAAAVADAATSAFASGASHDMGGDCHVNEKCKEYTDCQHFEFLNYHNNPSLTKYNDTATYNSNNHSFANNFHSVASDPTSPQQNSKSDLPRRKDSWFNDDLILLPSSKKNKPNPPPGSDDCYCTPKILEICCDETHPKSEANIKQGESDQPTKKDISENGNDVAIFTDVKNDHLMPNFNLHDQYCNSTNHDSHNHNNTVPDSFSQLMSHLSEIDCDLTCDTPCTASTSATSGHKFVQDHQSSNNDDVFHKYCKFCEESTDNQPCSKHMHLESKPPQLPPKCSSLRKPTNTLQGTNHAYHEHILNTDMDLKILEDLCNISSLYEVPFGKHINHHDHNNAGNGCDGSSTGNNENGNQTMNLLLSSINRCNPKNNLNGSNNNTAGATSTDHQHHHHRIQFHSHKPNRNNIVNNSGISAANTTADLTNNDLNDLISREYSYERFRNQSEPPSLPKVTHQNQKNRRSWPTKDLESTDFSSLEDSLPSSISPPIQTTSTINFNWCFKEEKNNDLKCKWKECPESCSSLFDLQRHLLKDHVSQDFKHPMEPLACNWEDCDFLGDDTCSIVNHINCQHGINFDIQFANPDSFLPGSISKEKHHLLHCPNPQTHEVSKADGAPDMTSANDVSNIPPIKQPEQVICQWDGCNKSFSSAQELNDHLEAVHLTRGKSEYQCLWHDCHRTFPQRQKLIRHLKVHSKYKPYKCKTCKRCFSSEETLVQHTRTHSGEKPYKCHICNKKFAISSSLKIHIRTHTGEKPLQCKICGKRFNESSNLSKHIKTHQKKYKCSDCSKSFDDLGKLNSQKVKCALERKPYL
Summary of the method: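 Yeast transcription factors carrying a GST tag, as full-length proteins or DNA-binding domains, were produced by PURExpress in vitro transcription/translation. About 100-200 nM protein was applied to universal all-10-mer Agilent arrays, double-stranded by primer extension on fresh or once-stripped slides. Bound protein was detected with fluorescent anti-GST, and scans were normalised with masliner. The Universal PBM Analysis Suite gave each ungapped eight-base word, pooled with its reverse complement, an E-score, a modified Wilcoxon-Mann-Whitney statistic.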

| Sequence | PBM E-score |
| --- | --- |
| ATCCTCGA | 0.0274 |
| TAATCGGA | -0.00292 |
| CTCACAAC | 0.181 |
| CGTTAAGA | -0.0174 |
| CGCGAGAG | 0.00964 |
| ACGGAAAA | 0.0966 |
| AACCGGAC | 0.0813 |
| ATGGTCAC | 0.312 |
| ATCCCAGA | -0.0394 |
| TCTATGAA | -0.0101 |
| CCAAAACA | 0.13 |
| CCACAGAG | 0.0203 |
| ACCTGCCA | 0.00285 |
| GGCTGCAA | 0.0548 |
| TGCTTCAA | 0.0233 |
| ACATTCCA | -0.152 |
| AATAGAGT | -0.109 |
| CAAGTGAG | -0.196 |
| CAATGTAA | 0.142 |
| TAAAACGA | 0.0235 |
| ATGTACCC | 0.216 |
| ACAACCAG | 0.23 |
| AAAACCGA | 0.0886 |
| AGCAGGGA | -0.239 |
| ATTAATCA | 0.218 |

| Sequence | PBM E-score |
| --- | --- |
| CCTGAAGA | 0.0193 |
| GAACGACC | 0.0425 |
| TCATGACA | 0.167 |
| TCCCGTCA | -0.0275 |
| CTCCACAG | -0.268 |
| CGCGATGA | 0.181 |
| AATGTCTG | -0.121 |
| AATCGAGG | 0.117 |
| CCTGCGAA | 0.0804 |
| GCGTCGAA | 0.0421 |
| CAGCAGAA | -0.0338 |
| CCCATCCC | 0.0022 |
| CTAACTAG | 0.0959 |
| AAACATCC | 0.0186 |
| CTACACGA | 0.159 |
| AACATGAG | -0.0271 |
| ATGGCAAA | -0.133 |
| AATGTATC | 0.107 |
| AGAAGAAC | 0.0131 |
| CGCATGAA | -0.0347 |
| CACACACA | 0.00095 |
| AGGCACAT | -0.132 |
| ACTATGAC | 0.0225 |
| ATTTGTCG | 0.101 |
| AAATTACG | 0.112 |

| Sequence | PBM E-score |
| --- | --- |
| ACGAACTG | -0.287 |
| AGGGATGC | -0.32 |
| AAGCCTTG | -0.218 |
| ACGTAAGT | -0.213 |
| CCTATCCA | -0.293 |
| ACCTTGAA | 0.337 |
| GCCTGGCC | -0.299 |
| ATACGATA | 0.0936 |
| CCGGAGCC | -0.166 |
| GACTATGC | -0.0408 |
| AGGGCTAT | -0.149 |
| ACCTAGTC | -0.0824 |
| TCACATCA | 0.0904 |
| CCTCATGA | 0.201 |
| GACCACCC | 0.108 |
| TACACGAA | -0.0152 |
| ATCCGTTG | -0.0685 |
| ATGGATGA | -0.0452 |
| CAAGAGGG | -0.0193 |
| AACGTATG | -0.0203 |
| ACCACCCG | 0.184 |
| CGGGAGAA | -0.053 |
| TACGGGAA | 0.159 |
| AGGAGTTA | 0.169 |
| ACTAATCA | 0.0612 |

| Sequence | PBM E-score |
| --- | --- |
| CAATTTCG | 0.0129 |
| ACGACATC | -0.237 |
| CACTACCC | 0.367 |
| ACTGGCGA | -0.157 |
| CTGCCGAA | -0.128 |
| AATGGAAG | -0.0451 |
| CCTGGAAG | -0.104 |
| ACACCGAG | 0.0553 |
| CAGGATCG | -0.225 |
| AAAGAGAG | -0.111 |
| ACTAGCGC | -0.171 |
| CCCGGAAA | 0.166 |
| AGTCATCC | -0.299 |
| CATAAGGA | 0.0809 |
| CAGCCCGG | 0.0449 |
| GCGCGTAC | -0.104 |
| CCCATCGG | 0.0241 |
| AGGCTCTA | -0.204 |
| CTCCGACA | -0.0298 |
| ACTCTTGG | 0.0055 |
| TCAAGAGA | 0.0264 |
| ATCGCTCC | -0.217 |
| CCATCCAC | -0.173 |
| TCATATCA | -0.0636 |
| AACTGATC | 0.0176 |

| Sequence | PBM E-score |
| --- | --- |
| ATTATCAA | 0.105 |
| CCGCAACG | 0.0923 |
| ATAGGGTG | 0.214 |
| GTTGGATA | -0.0536 |
| ACCTTCCC | 0.065 |
| CTAGCACC | 0.0633 |
| AAACGCAG | -0.0182 |
| GACTGGTA | -0.0348 |
| AGCACTTG | -0.31 |
| AAGTTCAG | -0.0476 |
| CGCTGACC | 0.315 |
| AGTTAAGA | 0.00562 |
| GGCGACCC | 0.202 |
| GACCATAC | 0.0612 |
| CGTATTGC | -0.27 |
| ACGTTGGC | -0.16 |
| CTTGGACC | -0.122 |
| GGGGTTAC | 0.464 |
| CGGGAATA | -0.0788 |
| AGCAGAAC | -0.00799 |
| CTATGTGC | -0.0648 |
| AGTCGTGA | 0.0725 |
| CGGGCGAC | -0.259 |
| AGCATGCG | -0.0192 |
| CCGGTCTC | -0.0169 |

| Sequence | PBM E-score |
| --- | --- |
| ACTAGAGA | -0.129 |
| AGTACTCA | -0.0985 |
| GTACCGGA | 0.139 |
| CGCCGTCC | -0.187 |
| CCGGGATA | 0.214 |
| GGGGGTTA | 0.0334 |
| GCGCGCAA | 0.0411 |
| CTACTATA | 0.0998 |
| ACAAGGAA | 0.0886 |
| AAGTTGGT | 0.16 |
| ACAATCCC | -0.106 |
| CAAGTGTA | -0.0404 |
| GAGGACAA | -0.0262 |
| ATAGCCCA | 0.138 |
| CCCCGCGA | -0.0717 |
| CCCTGACA | 0.0152 |
| CGGAGGTC | 0.0868 |
| CAATTTGA | 0.128 |
| TACAACGA | 0.0208 |
| ATAAGCTC | -0.134 |
| CGAAACCC | 0.288 |
| ACACGCTG | -0.112 |
| CATAGTTA | 0.0955 |
| ACTTCGCT | -0.0982 |
| AGCGTGGC | -0.192 |

| Sequence | PBM E-score |
| --- | --- |
| CTGTCGGC | -0.213 |
| CCAGCTGC | -0.301 |
| GATTTGAC | -0.0613 |
| AATCTATG | 0.00595 |
| CGATCCCG | -0.206 |
| TATGGTGA | 0.0727 |
| CTCCGCCA | -0.182 |
| GAGGGGCC | -0.0201 |
| AGTAGTAG | -0.252 |
| CCTTACAA | -0.0124 |
| AATATACT | 0.0391 |
| ACTTGCCC | -0.28 |
| GCTCAGCC | -0.19 |
| GGGACCAA | -0.127 |
| AAGGATTC | -0.128 |
| CAAACTAA | 0.272 |
| AACAACCT | 0.273 |
| AGGGTATC | 0.364 |
| AACACGTC | -0.186 |
| CGCCAACC | -0.101 |
| GCATCTCC | -0.315 |
| GGTAGAAA | 0.027 |
| AGCGAAAC | 0.264 |
| ACACTCTC | -0.165 |
| CTTTTTCC | 0.0735 |

| Sequence | PBM E-score |
| --- | --- |
| CCGCCACA | 0.0107 |
| AGATATAT | 0.178 |
| AGTGACCC | 0.347 |
| ATTGATCA | 0.0693 |
| AATATCGC | -0.103 |
| CCCAAACA | 0.159 |
| CGCGATTA | 0.111 |
| GAGTTTCA | -0.105 |
| CCACGCGC | -0.109 |
| CCGTTGTA | 0.211 |
| GCGTGTAC | -0.0849 |
| GATTTCGC | 0.14 |
| AATACTTG | -0.101 |
| ATAGATCG | -0.0988 |
| CACGCAGC | -0.227 |
| AGTACGTC | -0.07 |
| CAAGTTAG | 0.134 |
| CTCTAAAA | 0.0499 |
| GCAGCTAC | -0.135 |
| AAGATTTA | 0.0704 |
| AGGTCAGC | 0.286 |
| CGCCTAAA | -0.00104 |
| TATATCAA | 0.279 |
| CCCATGCG | -0.0228 |
| AAGATGGG | -0.0996 |

| Sequence | PBM E-score |
| --- | --- |
| CGTTCTAA | 0.176 |
| GCCGTCGA | -0.212 |
| TCACCCAA | 0.162 |
| CAACCACC | 0.212 |
| GGCTCCCA | -0.0912 |
| ATGGAGGG | -0.242 |
| ATTGCCGC | 0.00254 |
| AGTCCATG | -0.142 |
| GCTGATCC | -0.159 |
| ACCTGAAC | 0.0973 |
| AAAATATC | 0.165 |
| AGAATAAC | 0.159 |
| CGGTACAA | 0.205 |
| AGAAGCCT | -0.223 |
| CGGTAGAG | -0.018 |
| CGGCCCGC | -0.185 |
| AGGCTGGC | -0.127 |
| AAACAACG | -0.0949 |
| AGGCCTTG | -0.0709 |

— the supplement of paper PMC3334620
